Laboratory results from the RNAGym collection of RNA variant scans (doi:10.7554/elife.90254).
The source gives no read counts; variants with many changes may rest on few reads.

B1: LINE1-full (parent)
chain: UACGUAGGUGGUUUUCCCCUGAUAGUGCUAAGGGGGCCUGGAAGUUUGGACUGGGCAGAGCUCAACACAGCGUGGCAAAGUGGCUGUGGCUAGACUGCCUCUCUGGAUUCCUCGUCACUCAGCAGGGCAUCUCUGAGAGAAAUGCC

Variants of: B1
Assay: self-cleavage, relative activity (ratio to wild type); higher = more cleavage; in vitro, sequencing; the parent is a self-cleaving ribozyme
UACGUAGGUGGCAUUCCCCUGAUAGUGCUAAGGGGGCCUGGAAGUUUGGACUGGGCAGAGCCCAACACAGCGUGGCAAAGCGGCUGUGGCUAGACUGCCACUCUGGAUUCCACGUCACUCAGCAGGGCAUCACUGAGAGAAAUGCC [U12C U13A U62C U81C U100A U112A U132A] gave a self-cleavage of 1.15. In the case of UACGUAGGUGGUUUUCCCCUGAAAGUGCUAAGGGGGCCUGGAAGUUUGGACUGGGCAGAGCUCGACUCAGCGUGGCGAAGUGGCUGUGGCUAGACUGCCUCUCUGGAUUCCUCGUCACUCAGCAGGGCAUCUCUGAGAGAAAUGCC [U23A A64G A67U A77G], the self-cleavage is reported as 0.27. UACGUAGGAGGUUUUCCCCUGAUAGUGCUAAGGGGGCCUGGAAGGUUGGACUGGGCAGAGCCCAACACAGCGUGGCAAAGUGGCUGUGGCUAGACUGCCUCUCUGGAUUCCUCGUCACUCAGCAGGGCAUCUCUGAGAGAAAUGCC [U9A U45G U62C] showed a self-cleavage of 0.07. In the case of UACGUAGGUGGUUUCCCCCUGAUAGCGCUAAGGGGGCCUGGAAGUUUGGACUGGGCAGAGCUCAACACAGCGUGGCAAAGUGGCUGUGGCUAGACUGCCUCUCUGGAUUCCACGUCACUCAGCAGGGCAUCUCUGAGAGAAUUGCC [U15C U26C U112A A142U], the self-cleavage is reported as 1.47. With CAUGUAGGUGGUUUUCCCCUGAUAGUGCUAAGGGGGCCUGGAAGUUUGGACUGGGCAGAGCUCAACACAGCGUGGCAAAGUGGCUGUGGCUAGACUGCCUCUCUGGGUUCCUCGUCACUCAGCAGGGCAUCUCUGAGAGAAAUGCC [U1C C3U A107G] the self-cleavage was 1.31. For UACGUAGGAGGUUUUCCCCUGAUAGUGCUAAGGGGGCCUGGAAGUUUGGACUGGGCAGAGCUCAACUCAGCGUGGCAAAGUGGCUGUGGCUAGACUGCCUCUCUGGAUUCCUCGUCACUCAGCAGGGCGUCUCUGAGAGAAAUGCC [U9A A67U A129G], the self-cleavage was 0. In the case of UACGUAGGUGGUUUUCCCCUGAUAGUGCUAAGGGGGCCUGGAAGAUUGGACUGGGCAGAGCUCAACACAGCGUGGCAAAGUGGCUGUGGCUAGACUGCCUCCCUGGAUUCCUCGUCACCCAGCAGGGCAUCUCUGAGAGAAAUGCC [U45A U102C U119C], the self-cleavage is reported as 2.45. Work on UACGUAGGUGGUUUUCCCCUGAUAGUGCUAUGGGGGCCUGGAAGUUUGGACUGGGCAGAGCUCAACACAGCGUGGCGAAGUGGCUGUGGCUAGACUGCCUCUCUGGAUUCCUCGUCACUCAGCAGGGCAUCUCUGGGAGAAAUGCC [A31U A77G A136G] yielded a self-cleavage of 1.68. In the case of UACGUAGGUGGUUUUCCCCUGAUAGUGCUAAGGGGGCCUGGAAGCUUGGACUGGGCAGAGCUCAACACAGCGUGGCAGAGUGGCUGUGGCUAGACUGCCUCUCUGGAUUCCUCGUCACUCAGCAGGGCAUCUCUGAGAGAGAUGCC [U45C A78G A141G], the self-cleavage is reported as 1.87. UACGUAGGUGGUUUCCCCCUGAUAGUGCUAAGGGGGCCUGGAAGUUUGGACUGGGCAGAGCUCAACACAGCGUGGCAAAGUGGCUGUGGCUAGACUGCCUCUCUGGUUUCCUCGUCACUCGGCAUGGCAUCUCUGAGAGAAAUGCC [U15C A107U A121G G125U] gave a self-cleavage of 1.67. In the case of UACGUAGGUGGUUUUCCCCUGAUAGUGCUAAGGGGGCCUGGAAGUUAGGACUGGGCGGGGCUCAACACAGCGUGGCAAAGUGGCUGUGGCUAGUCUGCCUCUCUGGAUCCCUCGUCACUAGGCAGGGCAUCUCUGAGAGAAAUGCC [U47A A57G A59G A94U U109C C120A A121G], the self-cleavage is reported as 0. In the case of UACGUAGGUGGUUUUCCCCUGAUAGUGCUAAGGGGGCCUGGAAGUUUGGACUGGGCAGAGCUCAACACAGCGUGGCAAAGUGGCUGUGCCCAGACCGCCUCUCUGGAUUCCUCGUCACUCAGCAGGGCAUCUCUGAGAGAAAUGCC [G89C U91C U96C], the self-cleavage is reported as 0. With UACGUAGGUGGCUUUCCCCUGAUAGUGCUAAGGGGGCCUGGAAGUUUGGACUGGGCAGAGCUCAGCACAGCGUGGCAAAGUGGCUGUGGCUAGACUGCCUCUCUGGGUUCCUCGUCACUCAGCAGGGCAUCUCUGAGAGAAAUGCC [U12C A65G A107G] the self-cleavage was 0. UACGUAGGUGGUUUUCCCCUGAUAGUGCUAAGGGGGCCUGGUAGUUUGGACUGGGCAGAGCUCAACACAGCGUGGCAAAGUGGCUGUGGAUAGACUGCCUCUCUGGAUUCCUCGUCACUCAGCAGGGCAUCUCCGAGAGAAAUGCU [A42U C90A U134C C146U] showed a self-cleavage of 0.02. In the case of UACGUAGGUGGUUUUCCCCUGAUAGUGCUAAGGGGGCCUGGAAGUUUGGACUGGGCUGAGCUCAACACAGCGUGGCAAAAUGGCUGCGGUUAGACUGCCUCUCUGGAUUCCUCGUCACUCAGCAGGGCAUCUCUGAGAGAAAUGCC [A57U G80A U87C C90U], the self-cleavage is reported as 0.04. UACGUAGGUGGUUUUCCCCUGAUAGUGCUAAGGGGGCCUGGAAGUUUGGACUGGGCUGAGCUCAACACAGCGGGGCAAAGUGGCUGUGGCUAGACUGCCUCUCUGGAUUCCUCGUCACUCAGCAGGGCACCUCUGAGAGGAAUGCC [A57U U73G U130C A140G] gave a self-cleavage of 0.25. In the case of UACGUAGGUGGUUUUCCCCUGAUAGUGCUAAGGGGGCCUGGGAGUUGGGACUGGGCAGAGCUCAACACAGCGUGGCAAAGUGGCUGUGGCUAGACUGCCUCUCUGGAUUCCUCGUCACUCAGCAGUGCAUCUCUGAGAGAAAUGCC [A42G U47G G126U], the self-cleavage is reported as 1.19. For UACGUUGGUGAUUUACCCCUGAUAGUGCUAAGGGGGCCUGGAAGUUUGGACUGGGCAGAGCUCAACACAGCGUGGCAAAGUGGCUGUGGCCAGACUGCCUCUCUGGAUUCCUCGUCACUUAGCAGGGCAUCUCUGAGAGAAAUGCC [A6U G11A U15A U91C C120U], the self-cleavage was 0.9. UACGUAGGUGGUUUUCCCCUGACAGUGCUAAGGGGGCCUGGAAGUUUGGACUGGGCGGAGCUCAACACAGCGUGGCUAAGUGGCUGUGGCUAGACUGCCUCUCUGGAUUCCCCGUCACUCAGCAGGGCAUCUCUGAGGGAAAUGCC [U23C A57G A77U U112C A138G] showed a self-cleavage of 0.51. UACGUAGGUGGUUUUCCCCUGAUAGUGCUAAGGGCGCCUGGAAGUUUGGACUGGGCAGAGCUCAACACAGCGUGGCAAAGUGGCUGUGGCUAGACUGCCCCUCUGGAUUCCUCGCCACUCAGCAGGGCAUCUCUGAGAGAAAUGCC [G35C U100C U115C] showed a self-cleavage of 1.15.
